Series [1] deals with N=C(N)NCCC[C@H](N)C(=O)O. The series can be described thus: (§1) Activity of rat nNOS by Michaelis-Menten equation analysis.
The subject of series [2] is N=C(N)NC[C@H]1C[C@@H]1[C@H](N)C(=O)O. The description is as §1.
Series [3] relates to N=C(N)NC[C@H]1C[C@H]1[C@H](N)C(=O)O. The series is described as §1.
Series [4] deals with N=C(N)NCCC[C@H](N)C(=O)O. The series can be described thus: (§2) Ratio of Kcat to Km for rat nNOS by Michaelis-Menten equation analysis.
In series [5] the test system is N=C(N)NC[C@H]1C[C@@H]1[C@H](N)C(=O)O. Described as §2.
Series [6] relates to N=C(N)NC[C@H]1C[C@H]1[C@H](N)C(=O)O. The description is as §2.

Km and kcat/Km data for 1 substance are collected here from ChEMBL document CHEMBL1828615, “Synthesis of a series of 3,4-methanoarginines as side-chain conformationally restricted analogues of arginine” (Bioorg Med Chem, 2011).

As to “Nitric oxide synthase 1 (Rattus norvegicus) (chain not printed)”, the values for the Km (in the series with N=C(N)NCCC[C@H](N)C(=O)O [1]; in series [2]; in series [3]) were 2.7 µM, 7.6 µM and 256 µM, respectively. For the same substance, the kcat/Km with N=C(N)NCCC[C@H](N)C(=O)O [4] was 180000 M⁻¹ s⁻¹; in series [5] it was 317000 M⁻¹ s⁻¹; in series [6] it was 8600 M⁻¹ s⁻¹.

What is called Km is the concentration of substrate that gives half-maximal velocity. By kcat/Km is commonly meant the turnover number divided by the Michaelis constant.
